# Measured values from the supplement of paper PMC11417369.
# The other results are listed elsewhere or left out.
# Test system: PfAP2-HC AP2 domain (GST-tagged)
# Assay: gcPBM binding intensity (ln(normalized median fluorescence intensity)); higher = stronger DNA binding
# Method in brief: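 Each value is the highest Masliner-normalised natural-log median intensity across replicate spots of either orientation of a probe. The probes were primer-extended double-stranded 36-bp intergenic genomic sequences on an Agilent 4 × 180k array, alongside negative controls, exposed for 1 h to GST-tagged P. falciparum DNA-binding domains expressed in E. coli. Bound protein was picked up with Alexa488 anti-GST antibody and scanned at 488 nm.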
row,Sequence,gcPBM binding intensity (ln)
1,TTTTTTTATAGCTAAACACACATAAGAATATATGTT [CACACA_site1099],9.6
2,AAAATAATATATAATTGTACTTTTTTTTTATATATA [XGTACX_site6093],9.51
3,ATTATTACACAACGTTGTACATTTCAATATTTTTAT [XGTACX_site5096],9.95
4,TTTTTTCTTAAAATTTGTACATAGTGCAATTTTTTT [XGTACX_site5509],9.54
5,TTTCTTTTTTTTTAATGTACTTTTTTTATAAAAGGT [XGTACX_site5688],9.36
6,TCCTCTTCAATATATATATATTATAAATAAATAAAT [CACACA_negctrl_site1756],9.15
7,TTTGAATTTTTTAACACACACATGTGTGGATATATA [CACACA_site6872],9.88
8,TATTAACACTTTATAGAAACAAAAAAATAAGCAAAA [XGTACX_negctrl_site295],9.54
9,ATATATATAATAAACACACACATATACATATATGTA [CACACA_site3462],10.3
10,AAGTTGTATATTGATTGTACTTGTTTAGGGTTATAG [XGTACX_site2953],9.84
11,AGGTAAAATATACATTGTACATATAATTAATTTATT [XGTACX_site626],9.77
12,TATATATATATAATGTGTACACAAATATATATTATA [XGTACX_site8786],9.65
13,AAATTTATATAATATTGTACATTAAAAATTATATAT [XGTACX_site8009],9.42
14,AGTATATATACACAAGGGGAATACATATACAAAATT [TGCATGCA_negctrl_site244],9.81
15,TGGGTAATACATAATACACACATGTATATGTCGCAT [CACACA_site1125],9.93
16,TTTTTAAAAAAGATAAGCGAAAGAATTAATTTTTAA [GTGCAC_negctrl_site197],9.35
17,TATGTATAAATATATGCACACATATATATATTTATA [CACACA_site9150],9.72
18,TGTTTATTTATTTGTGTGCACTCAGATTATATTATA [GTGCAC_site9510],10.1
19,AAATCGTGCACGGACACATGCAGTAGCCGAGAATTA [TGCATGCA_site733],9.63
20,TATTTTAATTTTTGTTGTACGCAAATGTGAGGGCAT [XGTACX_site4663],9.38
21,TAAACCAAAAAAAGTAGTACAAATATTATAAAAAAA [XGTACX_site8497],9.74
22,GATGTATTCATACATGCACACGTACATATTTAAATA [CACACA_site9299],9.79

row,Sequence,gcPBM binding intensity (ln)
1,GTTCATAAATTAAACACACACACACGGCTGGATACC [CACACA_site7545],10.4
2,AGGTAGAAAAAAGACACACACATTAGATATTTATAT [CACACA_site6313],10.6
3,GTAAAACAGATTTACAGTACACATGTGTTATGTTTT [XGTACX_site2933],9.79
4,TTTTTATATTTTATTATTTTTTTTATATAAAAAATT [CACACA_negctrl_site601],9.63
5,ATAAAAATATTTGAATGTACTTATAAGATATATATA [XGTACX_site4257],9.55
6,TTTATATATAAATAATGTACAAAAAATTTTAAAAAG [XGTACX_site7990],9.55
7,CTTTATTTTTTATACACACACAATATGTATTTATAT [CACACA_site5879],10.2
8,TCTATTTTTTATATGGTGCATTGTTCTTATTAATAT [GTGCAC_site9392],9.77
9,AGGAAAAATAATTATTCACACAATAAATATATTTGA [CACACA_site5824],9.58
10,AATTAATTTATGTTACGTACATAAGTATTATATTTT [XGTACX_site388],9.68
11,GTTCAAATTATTATGTGTACTAAAGAATATTTTAAA [XGTACX_site3166],9.22
12,TAAATACATCTATGCACACAAAAAAATATATATTTT [CACACA_site5027],9.83
13,TGTATAAACTTTACGTGTACATGAATAATCTATAAT [XGTACX_site3801],9.54
14,AAAATGGAACTAGGAATAATATAAGAAGATAAAAGG [XGTACX_negctrl_site347],9.7
15,TTGTACAAAAATAATGCACACTATATCAAGTTTTTT [CACACA_site5898],9.64
16,TTTATAAATTCTCTTTTTAAAAAATATTTTTATACT [CACACA_negctrl_site427],9.48
17,AAAATAATTTTATAAGTGCAAAATAGCTTATTTATA,9.48
18,TAATCATTTTAGCTTACACACAAAATTTTGTTATAA [CACACA_site2939],9.75
19,TATATATGTGTATAGAGTACACGTTTTTTTTAATAT [XGTACX_site3128],9.6
20,AAAAACCTGAACTGTGCATGTCATACTTTTACTTTT [TGCATGCA_site73],9.87
21,TATACGTATTACAGAGTGCAATAAACAGTATATATT,9.8
22,TTTATTAAAATATTCTCACACACCAAAATATGTATG [CACACA_site932],9.97
